Laboratory results: PubChem BioAssay AID624418 (National Center for Advancing Translational Sciences (NCATS), 2012)
Hit rate of the full screen: of about 410,000 compounds, about 530 (0.13%) were called active. Inconclusive results, whose numbers are uncertain, are shown with a selection of clear calls. The call rests on the fitted dose curve; in most records, active means well fitted inhibition curve with a large enough effect; inconclusive means small, poorly fitted or top-dose-only effect, or another doubt; inactive means no such curve, though single readings can be large or run the other way. Potencies of inconclusive entries are doubtful fits and often do not repeat.

Experiment: qHTS of GLP-1 Receptor Inverse Agonists: Cytotox Screen
Settings: HEK293 cAMP-luciferase reporter cells, luminescence, 24 h; activity change, negative = inhibition: at 38.3 µM (top of the series) unless noted
Outline: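 Cells in DMEM/10% Nu serum/1% pen-strep, 1536-well format. Pre-incubated 12 h, dosed with 23 nL compound, incubated a further 24 h. Luciferase detection, 12 min at room temp, luminescence.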
On the % scale 0 is the no-effect control and ±100 the full control effect; potency means the concentration at half of the fitted maximal effect.

| Compound | activity change, negative = inhibition | Potency |
| --- | --- | --- |
| C=CCn1c(-c2cc(OC)c(OC)c(OC)c2)n[nH]c1=S | inactive: 5.48% |  |
| CC1CCCN(C(=O)Cn2nnc(-c3ccc(S(C)(=O)=O)cc3)n2)C1 (centres undefined) | inactive: -5.37% |  |
| Cc1ccc(S(=O)(=O)Nc2ccccc2NS(=O)(=O)c2ccc(C)cc2)cc1 | inactive: -15.1% |  |
| COc1ccc(-c2nc(NC(=O)c3ccc(OCC(=O)N4CCOCC4)c(OC)c3)sc2C)cc1 |  | inconclusive: 31.6 µM [inhibitor, partial curve, poor fit] |
| COc1cc(/C=C(\C#N)c2[nH]nc(N)c2C#N)cc(OC)c1O |  | inconclusive: 28.2 µM [inhibitor, single point] |
| COc1cc(C(=O)NC(=S)Nc2nccs2)cc(OC)c1OC |  | inconclusive: 12.6 µM [inhibitor, single point] |
| O=C(CCl)N1CCN(S(=O)(=O)c2ccc3ccccc3c2)CC1 |  | inconclusive: 11.2 µM [inhibitor, partial curve, poor fit] |
| NC(=O)c1ccccc1NC(=S)NC(=O)CCc1ccccc1 |  | inconclusive: 28.2 µM [inhibitor, single point] |
| CCCNC(=O)Nc1cc(C(=O)NCc2cccc(OCC)c2)ccc1N1CCCC1 | inactive: 5.23% |  |
| CC(C)(C)C1CCC(CN2C(Nc3ccccc3)=NC[C@@H]2Cc2ccccc2)CC1 (some centres undefined) |  | inconclusive: 10 µM [inhibitor, partial curve, poor fit] |
| CCN(CC)CCCNC(=O)c1oc2c(c1C)-c1nn(Cc3ccc(Cl)cc3)cc1CC2 |  | inconclusive: 22.4 µM [inhibitor, single point] |
| Cc1ccc(F)c(S(=O)(=O)NC(=O)C2(C)CCN2C(=O)c2sccc2C)c1 (centres undefined) | inactive: -5.11% |  |
| COc1ccc(CCNC(=O)c2cc(C3CC3)nc3c2cnn3C(C)C)cc1 |  | inconclusive: 28.2 µM [inhibitor, single point] |
| C/C(CCC1CC(C)OC1=O)=N\NC(N)=S (centres undefined) |  | inconclusive: 14.1 µM [inhibitor, single point] |
| CN(CCO)c1cc(N(C)CCO)c([N+](=O)[O-])cc1[N+](=O)[O-] |  | inconclusive: 12.6 µM [inhibitor, single point] |
| Cc1nc(C(C)NC(=O)CCc2nnc(Cc3c[nH]c4ccccc34)o2)cs1 (centres undefined) | inactive: -2.93% |  |
| CC(C)C[C@H](NC(=O)c1[nH]cnc1C(=O)N[C@@H](C)c1ccccc1)C(=O)OC(C)(C)C |  | inconclusive: 28.2 µM [inhibitor, single point] |
| CCOc1ccc(C2c3c(-c4ccccc4O)n[nH]c3C(=O)N2Cc2ccncc2)cc1 (centres undefined) | inactive: -22% |  |
| CCOC(=O)c1cc(-c2ccccc2)n(CCCC(=O)Nc2ccc(CC)cc2)c1C | inactive: -16.9% |  |
